According to the supplement of paper PMC8728848:
This is one part of the list.

Experiments:
Assay in all cases: glycan array binding signal (z-score within array); higher = stronger binding
Conditions in all cases: glycan notation: IUPAC condensed, linker removed
[1] = biological target: Neu5Ac(a2-3)Gal(b1-4)GlcNAc
Procedure, shortened: (§1)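 The binding signal is a Z-score computed within each array and averaged over linkers. Arrays of the same protein sequence at different concentrations or buffers were also averaged together. Data originate from 3228 arrays in the Consortium for Functional Glycomics database, kept only where the protein sequence was available.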

[2] = biological target: Neu5Ac(a2-3)Gal(b1-4)GlcNAc(b1-2)Man(a1-3)[GlcNAc(b1-2)Man(b1-4)GlcNAc(b1-2)Man(a1-6)]Man(b1-4)GlcNAc(b1-4)GlcNAc
Procedure, shortened: as §1

[3] = biological target: Neu5Ac(a2-3)Gal(b1-4)GlcNAc(b1-2)Man(a1-3)[Neu5Ac(a2-6)Gal(b1-4)GlcNAc(b1-2)Man(a1-6)]Man(b1-4)GlcNAc(b1-4)GlcNAc
Procedure, shortened: as §1

[4] = biological target: Neu5Ac(a2-3)Gal(b1-4)GlcNAc(b1-3)Gal(b1-3)GlcNAc
Procedure, shortened: as §1

[5] = biological target: Neu5Ac(a2-3)Gal(b1-4)GlcNAc(b1-3)Gal(b1-4)GlcNAc
Procedure, shortened: as §1

[6] = biological target: Neu5Ac(a2-3)Gal(b1-4)GlcNAc(b1-3)Gal(b1-4)GlcNAc(b1-3)Gal(b1-4)GlcNAc
Procedure, shortened: as §1

[7] = biological target: Neu5Ac(a2-3)Gal(b1-4)GlcNAc(b1-3)Gal(b1-4)[Fuc(a1-3)]GlcNAc
Procedure, shortened: as §1

[8] = biological target: Neu5Ac(a2-3)Gal(b1-4)GlcNAc(b1-3)GalNAc
Procedure, shortened: as §1

[9] = biological target: Neu5Ac(a2-3)Gal(b1-4)GlcNAc(b1-6)[Gal(b1-3)]GalNAc
Procedure, shortened: as §1

[10] = biological target: Neu5Ac(a2-3)Gal(b1-4)GlcNAc(b1-6)[Neu5Ac(a2-3)Gal(b1-3)]GalNAc
Procedure, shortened: as §1

[11] = biological target: Neu5Ac(a2-3)Gal(b1-4)GlcNAc6S
Procedure, shortened: as §1

[12] = biological target: Neu5Ac(a2-3)Gal(b1-4)[Fuc(a1-3)]GlcNAc
Procedure, shortened: as §1

[13] = biological target: Neu5Ac(a2-3)Gal(b1-4)[Fuc(a1-3)]GlcNAc(b1-3)Gal
Procedure, shortened: as §1

[14] = biological target: Neu5Ac(a2-3)Gal(b1-4)[Fuc(a1-3)]GlcNAc(b1-3)Gal(b1-4)GlcNAc
Procedure, shortened: as §1

[15] = biological target: Neu5Ac(a2-3)Gal(b1-4)[Fuc(a1-3)]GlcNAc(b1-3)Gal(b1-4)[Fuc(a1-3)]GlcNAc(b1-3)Gal(b1-4)[Fuc(a1-3)]GlcNAc
Procedure, shortened: as §1

[16] = biological target: Neu5Ac(a2-3)Gal(b1-4)[Fuc(a1-3)]GlcNAc(b1-3)GalNAc
Procedure, shortened: as §1

[17] = biological target: Neu5Ac(a2-3)Gal(b1-4)[Fuc(a1-3)]GlcNAc(b1-6)[Gal(b1-3)]GalNAc
Procedure, shortened: as §1

[18] = biological target: Neu5Ac(a2-3)Gal(b1-4)[Fuc(a1-3)]GlcNAc(b1-6)[Neu5Ac(a2-3)Gal(b1-3)]GalNAc
Procedure, shortened: as §1

[19] = biological target: Neu5Ac(a2-3)Gal(b1-4)[Fuc(a1-3)]GlcNAc6S
Procedure, shortened: as §1

[20] = biological target: Neu5Ac(a2-3)Gal6S(b1-4)GlcNAc
Procedure, shortened: as §1

[21] = biological target: Neu5Ac(a2-3)Gal6S(b1-4)[Fuc(a1-3)]GlcNAc
Procedure, shortened: as §1

Neu5Ac(a2-3)GalNAc = biological target: Neu5Ac(a2-3)GalNAc
Procedure, shortened: as §1

[22] = biological target: Neu5Ac(a2-3)GalNAc(b1-4)GlcNAc
Procedure, shortened: as §1

[23] = biological target: Neu5Ac(a2-3)[GalNAc(b1-4)]Gal(b1-4)Glc
Procedure, shortened: as §1

[24] = biological target: Neu5Ac(a2-3)[GalNAc(b1-4)]Gal(b1-4)GlcNAc
Procedure, shortened: as §1

[25] = biological target: Neu5Ac(a2-3)[GalNAc(b1-4)]Gal(b1-4)GlcNAc(b1-3)GalNAc
Procedure, shortened: as §1

[26] = biological target: Neu5Ac(a2-3)[Neu5Ac(a2-6)]GalNAc
Procedure, shortened: as §1

Neu5Ac(a2-6)Gal = biological target: Neu5Ac(a2-6)Gal
Procedure, shortened: as §1

Neu5Ac(a2-6)Gal(b1-4)Glc = biological target: Neu5Ac(a2-6)Gal(b1-4)Glc
Procedure, shortened: as §1

[27] = biological target: Neu5Ac(a2-6)Gal(b1-4)GlcNAc
Procedure, shortened: as §1

[28] = biological target: Neu5Ac(a2-6)Gal(b1-4)GlcNAc(b1-2)Man(a1-3)Man(b1-4)GlcNAc(b1-4)GlcNAc
Procedure, shortened: as §1

[29] = biological target: Neu5Ac(a2-6)Gal(b1-4)GlcNAc(b1-2)Man(a1-3)[Gal(b1-4)GlcNAc(b1-2)Man(a1-6)]Man(b1-4)GlcNAc(b1-4)GlcNAc
Procedure, shortened: as §1

[30] = biological target: Neu5Ac(a2-6)Gal(b1-4)GlcNAc(b1-2)Man(a1-3)[GlcNAc(b1-2)Man(a1-6)]Man(b1-4)GlcNAc(b1-4)GlcNAc
Procedure, shortened: as §1

[31] = biological target: Neu5Ac(a2-6)Gal(b1-4)GlcNAc(b1-2)Man(a1-3)[GlcNAc(b1-2)Man(b1-4)GlcNAc(b1-2)Man(a1-6)]Man(b1-4)GlcNAc(b1-4)GlcNAc
Procedure, shortened: as §1

[32] = biological target: Neu5Ac(a2-6)Gal(b1-4)GlcNAc(b1-2)Man(a1-3)[Man(a1-6)]Man(b1-4)GlcNAc(b1-4)GlcNAc
Procedure, shortened: as §1

B1: SAG3 (Toxoplasma gondii), Q9BJ39 (protein)
chain: MQLWRRRAAGPASLGRQSLPLGCFFAAFGLCVLSAILGTGERGLFVAAGNSRRKITYFGTLTQKAPNWYRCSSTRAKEEVVGHVTLNKEHPDMTIECVDDGLGGEFLPLEGARSSYPRVCHIDAKDQDDCERNRGFLTDYIPGAKQYWYKIEKVEQNGEQSVLYKFTVPWILLPPAKQRYKVGCRYPNHEYCFVEVTVEPTPPMVEGKRVTCGYSESGPVNLEVDLSKNANFIEIRCGEQHHPQPSTYTLQYCSGDSVDPQKCSPQSLTNIFYDYSSSWWKGKLNGPDGATLTIPPGGFPEEDKSFLVGCSLTVDGPPFCNVKVRVAGNPRKWERGGGGHPGSGGLQPGTDGETQAGTGSSAGASSRMASVALAFLLGLLVHVAA
[1]
  glycan array binding signal (z-score): -0.125
[2]
  glycan array binding signal (z-score): 0.28
[3]
  glycan array binding signal (z-score): -0.319
[4]
  glycan array binding signal (z-score): -0.226
[5]
  glycan array binding signal (z-score): -0.053
[6]
  glycan array binding signal (z-score): 0.226
[7]
  glycan array binding signal (z-score): -0.126
[8]
  glycan array binding signal (z-score): -0.304
[9]
  glycan array binding signal (z-score): -0.412
[10]
  glycan array binding signal (z-score): 0.087
[11]
  glycan array binding signal (z-score): -0.315
[12]
  glycan array binding signal (z-score): -0.439
[13]
  glycan array binding signal (z-score): -0.548
[14]
  glycan array binding signal (z-score): 0.616
[15]
  glycan array binding signal (z-score): -0.31
[16]
  glycan array binding signal (z-score): 16
[17]
  glycan array binding signal (z-score): 3.05
[18]
  glycan array binding signal (z-score): 2.02
[19]
  glycan array binding signal (z-score): -0.106
[20]
  glycan array binding signal (z-score): 0.439
[21]
  glycan array binding signal (z-score): -0.144
Neu5Ac(a2-3)GalNAc
  glycan array binding signal (z-score): -0.024
[22]
  glycan array binding signal (z-score): -0.469
[23]
  glycan array binding signal (z-score): -0.251
[24]
  glycan array binding signal (z-score): -0.264
[25]
  glycan array binding signal (z-score): -0.464
[26]
  glycan array binding signal (z-score): -0.226
Neu5Ac(a2-6)Gal
  glycan array binding signal (z-score): 0.496
Neu5Ac(a2-6)Gal(b1-4)Glc
  glycan array binding signal (z-score): -0.33
[27]
  glycan array binding signal (z-score): -0.372
[28]
  glycan array binding signal (z-score): 0.385
[29]
  glycan array binding signal (z-score): -0.052
[30]
  glycan array binding signal (z-score): -0.205
[31]
  glycan array binding signal (z-score): -0.291
[32]
  glycan array binding signal (z-score): -0.12
